This is one part of the list.

The assay addresses T1, OsWOX13 (Oryza sativa, UniProt Q5QMM3 1-267).
T1 sequence: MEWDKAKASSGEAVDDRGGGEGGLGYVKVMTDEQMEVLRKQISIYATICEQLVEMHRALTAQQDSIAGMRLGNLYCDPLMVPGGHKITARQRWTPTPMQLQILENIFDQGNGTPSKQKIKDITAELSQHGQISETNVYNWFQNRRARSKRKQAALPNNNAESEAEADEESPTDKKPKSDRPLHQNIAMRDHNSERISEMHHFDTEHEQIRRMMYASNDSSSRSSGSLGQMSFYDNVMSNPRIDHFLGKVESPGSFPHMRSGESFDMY
The assay can be described thus: protein-binding microarray (RPBM); PBS, 2% BSA, 51.3 ng/ul salmon testes DNA, 50 uM zinc acetate, 200 nM TF, 25 C, 1 h; high values mean tight binding. As to conditions: protein: recombinant; tags: N-terminal polyhistidine and DsRed monomer fusion (pET32a); label: CyDye5-dUTP incorporated in the synthesized complementary strand; 3' TTTTT single-stranded linker to array surface; dsDNA, one strand shown. The procedure, abridged: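 The binding signal is fluorescence intensity per feature, in arbitrary units, read on an Axon 4000B scanner. Polyhistidine- and DsRed-tagged transcription factors (N-terminal fusions) from E. coli BL21-CodonPlus were purified on Ni–NTA and applied at 200 nM for 1 h at 25 °C to a double-stranded, BSA-blocked custom Agilent array in buffer with 50 µM zinc acetate.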
As for “ATAAAATAGTTGACTGGCTATCTTCTACTCCACTTGGTATCGGAGTCACCTAGTGCAG”, the binding signal was 5320 fluorescence intensity (a.u.).

With “CATAAACCAAAATTTGAATACAAATTCCTTGAGTTTACCGCGGAGTCACCTAGTGCAG”, the binding signal is 5990 fluorescence intensity (a.u.). In the case of “AGATGTGATGGGATTGAATCCCATGAATCCAACCAACGGCCGGAGTCACCTAGTGCAG” it was 10600 fluorescence intensity (a.u.); in that of “ATCCAATTAACATCCCAATCCGAGCCAAATATTATCAAACCGGAGTCACCTAGTGCAG”, 14800 fluorescence intensity (a.u.). In the case of “TCTGATTCATTGTTAAATATACTTTCATGTAGACATGTAGCGGAGTCACCTAGTGCAG” it was 7600 fluorescence intensity (a.u.); in that of “GGCTGCAGTCAGTTTGGATCCAATCATCCAACTGGGATCACGGAGTCACCTAGTGCAG”, 6410 fluorescence intensity (a.u.); in that of “CCAATTGACTATATATAACATAGTACTTGCTAGCTTAATTCGGAGTCACCTAGTGCAG”, 3640 fluorescence intensity (a.u.). With “AATATACTGACTTGAGTGACTGAATGGAGGGGAAATCTGTCGGAGTCACCTAGTGCAG”, the binding signal is 5680 fluorescence intensity (a.u.). On to “ATCCGCATTAACATATTTAATCACACGTGTTATCTCAAACCGGAGTCACCTAGTGCAG”, for which the binding signal is 7030 fluorescence intensity (a.u.). In the case of “CCTTTTCTATTTACAAATCAATTTCATATGGTCTCTGAAGCGGAGTCACCTAGTGCAG” it was 4580 fluorescence intensity (a.u.); in that of “TCTGCTTTGAAAAGATAATTAATTAAGATGTACTCCCTCCCGGAGTCACCTAGTGCAG”, 8000 fluorescence intensity (a.u.); in that of “GCATAGTCGATTAATTAATTGTAAGCCCATCGAATTACACCGGAGTCACCTAGTGCAG”, 22600 fluorescence intensity (a.u.).

With “GGACTATCACCACTAAATTGAGGGCACAACATTGGCGGCACGGAGTCACCTAGTGCAG”, the binding signal is 6590 fluorescence intensity (a.u.).

As for “GACTTGGAGTGATTTGCTCTCAACAGTAGAGAGTTGTTGGCGGAGTCACCTAGTGCAG”, the binding signal was 4800 fluorescence intensity (a.u.). In the case of “GTTATAAATTTAAGATGACATGATTCAAGTAATTTTAGTTCGGAGTCACCTAGTGCAG” it was 9730 fluorescence intensity (a.u.).

With “CTCTAATACTGATTACTGATTGCATACCTGTTCCCTTAGGCGGAGTCACCTAGTGCAG”, the binding signal is 24700 fluorescence intensity (a.u.). In the case of “ACTAGATTACTCACAGTTGTTAGGGATGAGGTGAGGGCACCGGAGTCACCTAGTGCAG” it was 3660 fluorescence intensity (a.u.); in that of “CTTAACTGAGAATTGATGTTTCTGTGGTGGATTTGGTCAGCGGAGTCACCTAGTGCAG”, 46900 fluorescence intensity (a.u.). In the case of “CTCAGCAATAGACTAGATTAATAGTAAATCACCTTAATAGCGGAGTCACCTAGTGCAG” it was 3230 fluorescence intensity (a.u.); in that of “ATGATTGTCAACTCAACTGAACCTGAACCAGTTTTACCTACGGAGTCACCTAGTGCAG”, 10800 fluorescence intensity (a.u.); in that of “ATTGTGGATTTTAATTTTAATTGCTTTCTGAAAATATTTTCGGAGTCACCTAGTGCAG”, 3780 fluorescence intensity (a.u.). In the case of “AAATTTTCAGATAATTTTGTGTTATGTGTAGACCTCGACGCGGAGTCACCTAGTGCAG” it was 3680 fluorescence intensity (a.u.); in that of “AATAAATGAACATTATATTTTCAAATTTAATTCGCTGCTTCGGAGTCACCTAGTGCAG”, 9520 fluorescence intensity (a.u.); in that of “CTAATGAAATGATTGGTCCACGAGACAGAGCCACCGACCGCGGAGTCACCTAGTGCAG”, 31900 fluorescence intensity (a.u.). “CTCATGATTAAGGCTTTATTCAGAGGCACTTACTGTTGTACGGAGTCACCTAGTGCAG”: the binding signal was 11600 fluorescence intensity (a.u.). In the case of “AATTATTAATTTTACCAAATTAATGGTATGGTTTAAAATGCGGAGTCACCTAGTGCAG” it was 33200 fluorescence intensity (a.u.); in that of “CTAATTTTAACGTGAACTAAATATACCCTCAATTAAACTTCGGAGTCACCTAGTGCAG”, 5580 fluorescence intensity (a.u.); in that of “TTTTGATTGGGCCGATCTCTAGCCCATATATACGTGTAGGCGGAGTCACCTAGTGCAG”, 29300 fluorescence intensity (a.u.). Turning to “GGTGGATGAGAATGGATTGAATGAAAACAACAACATATTACGGAGTCACCTAGTGCAG”, the binding signal was 7970 fluorescence intensity (a.u.). In the case of “ACCAAATTTTGACAATATCAAAATTTTAATAAGTTGGCAACGGAGTCACCTAGTGCAG”, the binding signal was 7990 fluorescence intensity (a.u.). The value for “AACTAATTGGTGAACGGTTGCTCGCAGAACCATTAATTGACGGAGTCACCTAGTGCAG” was 22500 fluorescence intensity (a.u.). For the sequence “GACTAACCTGCCTAATTGTCACAGGTCCCACTAGTTCTTGCGGAGTCACCTAGTGCAG”, the binding signal is 3440 fluorescence intensity (a.u.). The value for “GCTGACGAGCTCAAGCATAGCCTCCATTACGGACACGCCTCGGAGTCACCTAGTGCAG” was 3210 fluorescence intensity (a.u.). For “CTGAGACAAATAATGACAATAATTTGTCTACAATCAATCCCGGAGTCACCTAGTGCAG”, the binding signal is 16600 fluorescence intensity (a.u.). The value for “ATTAATTACCAGGTTTGTTATCGCATTCGAGGATGTGCACCGGAGTCACCTAGTGCAG” was 24300 fluorescence intensity (a.u.); that for “GCAAATTGAAATGAACTTAATCCTAAACTTTTCCTAGTACCGGAGTCACCTAGTGCAG” was 40800 fluorescence intensity (a.u.); that for “TAATAACTTATACTGATATTGATTACTCCCTCCATCCCTACGGAGTCACCTAGTGCAG” was 11800 fluorescence intensity (a.u.). In the case of “AACTGATTAATGGCGTTTGTAATTATTCTAGATGGAGAGGCGGAGTCACCTAGTGCAG” it was 44400 fluorescence intensity (a.u.). As for “TCGAAATGATTTCAGTGAATTTCGTTCAAAATTCGACACACGGAGTCACCTAGTGCAG”, the binding signal is 4410 fluorescence intensity (a.u.). Regarding “CTGATTAATTGACCCACCGACTAAACTTGCACAGTCACCACGGAGTCACCTAGTGCAG”, the binding signal was 50500 fluorescence intensity (a.u.). The value for “CAAAACAAATTACAGATTGCGCATGTAAACTACGAGACGACGGAGTCACCTAGTGCAG” was 19900 fluorescence intensity (a.u.).

In the case of “GAGATTGAAGAGAAGGCAAAATCTTTAGCAACCTGCACTTCGGAGTCACCTAGTGCAG”, the binding signal was 15900 fluorescence intensity (a.u.).
